Data on eight sequences can be found in the supplement of paper PMC12230231.

± gives the standard deviation of the averaged measurements. Restriction of a single-cycle SIVsab GFP reporter by TRIM5α v1-loop variants in CRFK cells. Human variants: read share among cells still uninfected after two challenges over input, higher = gained restriction. Rhesus variants: share among infected cells over input, higher = lost restriction. Reporter dose not given per row. No active / inactive call per row; the paper calls a change when both replicates lie above its controls (mean + 2 SD of stop or wild-type variants, or the top frameshift score). Residues outside the varied loop are taken from Swiss-Prot. The paper reads the human single-substitution scores as noise; they and the rhesus combinations repeat poorly (rank correlation 0.3 to 0.4), indel scores repeat only for the top variants, rhesus substitutions well (0.9).

For this data set, the system named is SIVsab (simian immunodeficiency virus of sabaeus monkeys), single-cycle GFP reporter, in CRFK cells. Nature of the data set: enrichment among infected cells over input (fold); higher = weaker restriction. To be noted: library: human / rhesus combinations. As to the method:
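Pools of CRFK cells expressing variants of the TRIM5α v1 loop were challenged with the single-cycle reporter, sorted by GFP and sequenced; mean of two replicates.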
In the case of “MASGILLNVKEEVTCPICLELLTEPLSLHCGHSFCQACITANHKKSMLYKEGERSCPVCRISYQPENIQPNRHVANIVEKLREVKLSPEEGQKVDHCARHGEKLLLFCQEDSKVICWLCERSQEHRGHHTFLMEEVAQEYHVKLQTALEMLRQKQQEAEKLEADIREEKASWKIQIDYDKTNVSADFEQLREILDWEESNELQNLEKEEEDILKSLTKSETEMVQQTQYMRELISELEHRLQGSMMDLLQGVDGIIKRIENMTLKKPKTFHKNQRRVFRAPDLKGMLDMFRELTDARRYWVDVTLAPNNISHAVIAEDKRQVSSRNPQIMYGAPGTLFPSFVNFNYCTGVLGSQSITSGKHYWEVDVSKKSAWILGVCAGFQSDAMYNIEQNENYQPKYGYWVIGLQEGVKYSVFQDGSSHTPFAPFIVPLSVIICPDRVGVFVDYEACTVSFFNITNHGFLIYKFSQCSFSKPVFPYLNPRKCTVPMTLCSPSS [rhesus TRIM5α, 332-344 = GAPGTLFPSFV]”, the enrichment was 2.29 ± 1.2.
Under “MASGILLNVKEEVTCPICLELLTEPLSLHCGHSFCQACITANHKKSMLYKEGERSCPVCRISYQPENIQPNRHVANIVEKLREVKLSPEEGQKVDHCARHGEKLLLFCQEDSKVICWLCERSQEHRGHHTFLMEEVAQEYHVKLQTALEMLRQKQQEAEKLEADIREEKASWKIQIDYDKTNVSADFEQLREILDWEESNELQNLEKEEEDILKSLTKSETEMVQQTQYMRELISELEHRLQGSMMDLLQGVDGIIKRIENMTLKKPKTFHKNQRRVFRAPDLKGMLDMFRELTDARRYWVDVTLAPNNISHAVIAEDKRQVSSRNPQIMYGAPGTLFPSLTNFNYCTGVLGSQSITSGKHYWEVDVSKKSAWILGVCAGFQSDAMYNIEQNENYQPKYGYWVIGLQEGVKYSVFQDGSSHTPFAPFIVPLSVIICPDRVGVFVDYEACTVSFFNITNHGFLIYKFSQCSFSKPVFPYLNPRKCTVPMTLCSPSS [rhesus TRIM5α, 332-344 = GAPGTLFPSLT]” stands 0.865 ± 0.058; under “MASGILLNVKEEVTCPICLELLTEPLSLHCGHSFCQACITANHKKSMLYKEGERSCPVCRISYQPENIQPNRHVANIVEKLREVKLSPEEGQKVDHCARHGEKLLLFCQEDSKVICWLCERSQEHRGHHTFLMEEVAQEYHVKLQTALEMLRQKQQEAEKLEADIREEKASWKIQIDYDKTNVSADFEQLREILDWEESNELQNLEKEEEDILKSLTKSETEMVQQTQYMRELISELEHRLQGSMMDLLQGVDGIIKRIENMTLKKPKTFHKNQRRVFRAPDLKGMLDMFRELTDARRYWVDVTLAPNNISHAVIAEDKRQVSSRNPQIMYGAPGTLFQSFTNFNYCTGVLGSQSITSGKHYWEVDVSKKSAWILGVCAGFQSDAMYNIEQNENYQPKYGYWVIGLQEGVKYSVFQDGSSHTPFAPFIVPLSVIICPDRVGVFVDYEACTVSFFNITNHGFLIYKFSQCSFSKPVFPYLNPRKCTVPMTLCSPSS [rhesus TRIM5α, 332-344 = GAPGTLFQSFT]”, 0.075 ± 0.1; under “MASGILLNVKEEVTCPICLELLTEPLSLHCGHSFCQACITANHKKSMLYKEGERSCPVCRISYQPENIQPNRHVANIVEKLREVKLSPEEGQKVDHCARHGEKLLLFCQEDSKVICWLCERSQEHRGHHTFLMEEVAQEYHVKLQTALEMLRQKQQEAEKLEADIREEKASWKIQIDYDKTNVSADFEQLREILDWEESNELQNLEKEEEDILKSLTKSETEMVQQTQYMRELISELEHRLQGSMMDLLQGVDGIIKRIENMTLKKPKTFHKNQRRVFRAPDLKGMLDMFRELTDARRYWVDVTLAPNNISHAVIAEDKRQVSSRNPQIMYGAPGTLFQTFTNFNYCTGVLGSQSITSGKHYWEVDVSKKSAWILGVCAGFQSDAMYNIEQNENYQPKYGYWVIGLQEGVKYSVFQDGSSHTPFAPFIVPLSVIICPDRVGVFVDYEACTVSFFNITNHGFLIYKFSQCSFSKPVFPYLNPRKCTVPMTLCSPSS [rhesus TRIM5α, 332-344 = GAPGTLFQTFT]”, 0.242 ± 0.34.
As to “MASGILLNVKEEVTCPICLELLTEPLSLHCGHSFCQACITANHKKSMLYKEGERSCPVCRISYQPENIQPNRHVANIVEKLREVKLSPEEGQKVDHCARHGEKLLLFCQEDSKVICWLCERSQEHRGHHTFLMEEVAQEYHVKLQTALEMLRQKQQEAEKLEADIREEKASWKIQIDYDKTNVSADFEQLREILDWEESNELQNLEKEEEDILKSLTKSETEMVQQTQYMRELISELEHRLQGSMMDLLQGVDGIIKRIENMTLKKPKTFHKNQRRVFRAPDLKGMLDMFRELTDARRYWVDVTLAPNNISHAVIAEDKRQVSSRNPQIMYGAPGTLFTFPSFVNFNYCTGVLGSQSITSGKHYWEVDVSKKSAWILGVCAGFQSDAMYNIEQNENYQPKYGYWVIGLQEGVKYSVFQDGSSHTPFAPFIVPLSVIICPDRVGVFVDYEACTVSFFNITNHGFLIYKFSQCSFSKPVFPYLNPRKCTVPMTLCSPSS [rhesus TRIM5α, 332-344 = GAPGTLFTFPSFV]”, the enrichment is 0.265 ± 0.0054.
The result for “MASGILLNVKEEVTCPICLELLTEPLSLHCGHSFCQACITANHKKSMLYKEGERSCPVCRISYQPENIQPNRHVANIVEKLREVKLSPEEGQKVDHCARHGEKLLLFCQEDSKVICWLCERSQEHRGHHTFLMEEVAQEYHVKLQTALEMLRQKQQEAEKLEADIREEKASWKIQIDYDKTNVSADFEQLREILDWEESNELQNLEKEEEDILKSLTKSETEMVQQTQYMRELISELEHRLQGSMMDLLQGVDGIIKRIENMTLKKPKTFHKNQRRVFRAPDLKGMLDMFRELTDARRYWVDVTLAPNNISHAVIAEDKRQVSSRNPQIMYGAPGTLFTFPTFTNFNYCTGVLGSQSITSGKHYWEVDVSKKSAWILGVCAGFQSDAMYNIEQNENYQPKYGYWVIGLQEGVKYSVFQDGSSHTPFAPFIVPLSVIICPDRVGVFVDYEACTVSFFNITNHGFLIYKFSQCSFSKPVFPYLNPRKCTVPMTLCSPSS [rhesus TRIM5α, 332-344 = GAPGTLFTFPTFT]” reads 0.272 ± 0.069; that for “MASGILLNVKEEVTCPICLELLTEPLSLHCGHSFCQACITANHKKSMLYKEGERSCPVCRISYQPENIQPNRHVANIVEKLREVKLSPEEGQKVDHCARHGEKLLLFCQEDSKVICWLCERSQEHRGHHTFLMEEVAQEYHVKLQTALEMLRQKQQEAEKLEADIREEKASWKIQIDYDKTNVSADFEQLREILDWEESNELQNLEKEEEDILKSLTKSETEMVQQTQYMRELISELEHRLQGSMMDLLQGVDGIIKRIENMTLKKPKTFHKNQRRVFRAPDLKGMLDMFRELTDARRYWVDVTLAPNNISHAVIAEDKRQVSSRNPQIMYGAPGTLFTFPTFVNFNYCTGVLGSQSITSGKHYWEVDVSKKSAWILGVCAGFQSDAMYNIEQNENYQPKYGYWVIGLQEGVKYSVFQDGSSHTPFAPFIVPLSVIICPDRVGVFVDYEACTVSFFNITNHGFLIYKFSQCSFSKPVFPYLNPRKCTVPMTLCSPSS [rhesus TRIM5α, 332-344 = GAPGTLFTFPTFV]”, 0.464 ± 0.59.
Under “MASGILLNVKEEVTCPICLELLTEPLSLHCGHSFCQACITANHKKSMLYKEGERSCPVCRISYQPENIQPNRHVANIVEKLREVKLSPEEGQKVDHCARHGEKLLLFCQEDSKVICWLCERSQEHRGHHTFLMEEVAQEYHVKLQTALEMLRQKQQEAEKLEADIREEKASWKIQIDYDKTNVSADFEQLREILDWEESNELQNLEKEEEDILKSLTKSETEMVQQTQYMRELISELEHRLQGSMMDLLQGVDGIIKRIENMTLKKPKTFHKNQRRVFRAPDLKGMLDMFRELTDARRYWVDVTLAPNNISHAVIAEDKRQVSSRNPQIMYGAPGTLFTFPTLVNFNYCTGVLGSQSITSGKHYWEVDVSKKSAWILGVCAGFQSDAMYNIEQNENYQPKYGYWVIGLQEGVKYSVFQDGSSHTPFAPFIVPLSVIICPDRVGVFVDYEACTVSFFNITNHGFLIYKFSQCSFSKPVFPYLNPRKCTVPMTLCSPSS [rhesus TRIM5α, 332-344 = GAPGTLFTFPTLV]” stands 0.227 ± 0.11.
